# In PMC4336329 (PLoS ONE, 2015):
# The campaign covered roughly 310,000 compounds. About 14,000 (4.5%) showed an effect of 50% or more. Effects have a minus sign here. Some of the results follow.
# Target: human ether-à-go-go-related gene (hERG) potassium channel (human, UniProt Q12809)
# Test: primary screen, population patch clamp on CHO cells stably expressing hERG
# 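Note: peak tail current of the secondary pulse compared with the same well before compound.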
# Chain of human ether-à-go-go-related gene (hERG) potassium channel (Q12809 whole entry, looked up): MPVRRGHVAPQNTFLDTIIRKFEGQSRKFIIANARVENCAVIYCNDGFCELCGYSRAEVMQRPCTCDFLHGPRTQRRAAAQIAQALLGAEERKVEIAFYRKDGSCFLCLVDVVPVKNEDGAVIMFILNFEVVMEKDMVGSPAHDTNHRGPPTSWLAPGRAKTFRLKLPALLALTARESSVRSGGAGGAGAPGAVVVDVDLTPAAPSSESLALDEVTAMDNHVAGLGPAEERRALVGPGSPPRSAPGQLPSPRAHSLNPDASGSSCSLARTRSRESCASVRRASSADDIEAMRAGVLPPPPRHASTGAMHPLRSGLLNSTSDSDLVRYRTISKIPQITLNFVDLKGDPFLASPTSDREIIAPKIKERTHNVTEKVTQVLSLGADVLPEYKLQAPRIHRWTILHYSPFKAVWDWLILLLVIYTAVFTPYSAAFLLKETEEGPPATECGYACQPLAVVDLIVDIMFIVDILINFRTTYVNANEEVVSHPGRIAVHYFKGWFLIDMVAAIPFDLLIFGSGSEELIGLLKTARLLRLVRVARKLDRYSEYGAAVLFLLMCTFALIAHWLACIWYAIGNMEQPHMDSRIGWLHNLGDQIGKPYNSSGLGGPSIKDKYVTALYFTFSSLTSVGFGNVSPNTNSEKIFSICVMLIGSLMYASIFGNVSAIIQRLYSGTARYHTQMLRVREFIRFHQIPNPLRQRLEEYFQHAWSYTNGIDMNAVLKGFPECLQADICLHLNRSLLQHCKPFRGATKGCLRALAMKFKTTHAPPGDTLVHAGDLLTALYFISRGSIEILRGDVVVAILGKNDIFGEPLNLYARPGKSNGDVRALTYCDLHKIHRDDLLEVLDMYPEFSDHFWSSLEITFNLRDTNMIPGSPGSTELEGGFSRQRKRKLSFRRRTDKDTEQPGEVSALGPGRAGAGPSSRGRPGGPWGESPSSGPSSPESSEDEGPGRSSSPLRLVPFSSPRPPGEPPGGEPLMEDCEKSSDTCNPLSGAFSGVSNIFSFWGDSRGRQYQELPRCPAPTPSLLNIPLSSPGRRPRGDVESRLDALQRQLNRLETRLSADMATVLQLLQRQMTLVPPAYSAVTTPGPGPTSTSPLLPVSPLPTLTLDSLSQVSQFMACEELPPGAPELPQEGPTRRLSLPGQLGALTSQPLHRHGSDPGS
row,SMILES,"hERG current change (%, negative = inhibition) at 10uM"
1,Cc1cc(=O)oc2c(C)c(OC(C)C(=O)NCCCn3ccnc3)ccc12 (stereo not shown),-18.6%
2,CCOc1cc(/C=N/N=C(\N)c2nonc2N)cc(Br)c1OCc1cccc2ccccc12,18.5%
3,COc1cccc(CNS(=O)(=O)c2ccc3c(c2)CCN3C(=O)C2CC2)c1,-0.982%
4,CCOc1ccc2nc(NC(=O)Nc3ccccc3)sc2c1,10.4%
5,FC(F)(F)C1CCCN(c2nsc3ccccc23)C1 (stereo not shown),19.1%
6,O=C(O)COCC(=O)N1CCc2c([nH]c3ccccc23)C1C(F)(F)F (stereo not shown),2.14%
7,COc1ccc(NC(=O)c2ccccc2NC(=O)COc2ccccc2)cc1,-7.75%
8,C=CCn1c(=O)c(C(=O)OCC)c(O)c2ccccc21,20%
9,CCOC(=O)CCC(=O)Nc1ccc(S(=O)(=O)N2CCCC2)cc1,-4.19%
10,Cn1c(C2CCCCC2)nc2c1c(=O)[nH]c(=O)n2Cc1ccccc1,-49.7%
11,COc1ccc(OCc2nnc(SCC(=O)Nc3ccc(C)cc3)o2)cc1,19.5%
12,COc1ccc(C(=O)NC(=S)N2CCOCC2)cc1OC,-0.236%
13,N=C1/C(=C\c2ccc(OC(=O)c3ccco3)cc2)C(=O)N=C2SC(N3CCCCC3)=NN12,23%
14,CCC(C)NC(=O)c1cn(-c2cccc(C)n2)cn1 (stereo not shown),-2.74%
15,CCc1cc(C(=O)Nc2ncccc2O)sc1C,5.71%
16,CC(C)(CO)NCC(=O)Nc1cc(C(F)(F)F)cc(NC(=O)CNC(C)(C)CO)c1Cl,8.09%
17,CCCn1c(=O)[nH]c(=O)c2c1nc(-c1ccccc1OC(F)F)n2CCOC,9.45%
18,COc1ccccc1-n1cc(-c2ccccc2)[nH]c1=S,19.4%
19,O=C(NCCNc1ccc([N+](=O)[O-])cc1)c1cccs1,-13.9%
20,COc1ccc(S(=O)(=O)N2CCC(C(=O)NCCN3CCOCC3)CC2)cc1OC,15%
21,O=C(Nc1ccc(O)cc1C(=O)O)c1cccs1,16.6%
22,CC1CCN(S(=O)(=O)c2ccc(NC(=O)Cn3nnc(-c4ccccc4)n3)cc2)CC1,11.9%
23,Cc1ccc(CNC(=O)C2CCCN(c3ncnc4c3nc3n4CCCCC3)C2)cc1 (stereo not shown),-49%
24,CC1CCN(CCNC(=S)Nc2ccc(Cl)cc2)CC1,-65.7%
25,COc1ccccc1NS(=O)(=O)c1cccc(NC(=O)NC2CCCCC2)c1,11.7%
26,CNC(=O)CN(CCc1ccccc1)S(=O)(=O)c1ccc(OC)cc1,2.12%
27,O=C(NC(Cc1ccccc1)C(=O)O)/C(=C/c1cccc(Br)c1)NC(=O)c1ccco1 (stereo not shown),12.7%
28,Cc1ccc(-c2csc(N3N=C(c4ccccc4)/C(=C\c4ccc(N(C)C)cc4)C3=O)n2)cc1,-5.17%

row,SMILES,"hERG current change (%, negative = inhibition) at 10uM"
1,COc1ccc(/C=N/OC(=O)c2ccc(Cl)cc2)c(Cl)c1OC,3.29%
2,C=CC12CN(C)[C@@H]3C4CO[C@H](C[C@H]41)[C@]1(C(=O)Nc4ccccc41)[C@@H]32 (stereo partly shown),13.2%
3,Cc1cccc(NS(=O)(=O)c2ccc(NC(=O)N3CCCCC3)cc2)c1,6.45%
4,COc1ccc(C(CC(=O)N2CCOCC2)C(C)C)cc1 (stereo not shown),24.1%
5,O=C(NCCCN1CCOCC1)c1cc2c(=O)[nH]c3ccccc3c2s1,1.35%
6,Cc1ccc(N(CC(=O)NC2CCCCC2)C(=O)CCCC(=O)Nc2ccccn2)c(C)c1,-2.93%
7,CCN1CCN(c2ccc(S(=O)(=O)N3CCCCC3)cc2NC(=O)c2ccc(F)cc2)CC1,-56.5%
8,CN(C)c1nc(N(C)C)nc(N(C#N)Cc2ccc(Cl)cc2)n1,9.16%
9,COc1ccc(C2CC(c3ccccc3)=NN2C(=O)CSc2ncccn2)cc1 (stereo not shown),12.3%
10,CCOc1ccc(OCC(=O)OCc2csc(CC(=O)Nc3ccccc3C)n2)cc1,14.8%
11,O=C(Oc1ccc(N2C(=O)CCC2=O)cc1)c1ccccc1Cl,-0.356%
12,COc1cc(CCCN2C(=O)C(=O)NC[C@@H]2CC2CCCCC2)cc(OC)c1OC,4%
13,C=CCn1c(SCC(=O)Nc2ccc(C(=O)O)cc2)nc2sc(C)c(C)c2c1=O,8.9%
14,COc1cccc(/C=N/Nc2ncccc2[N+](=O)[O-])c1OC,-2.19%
15,COCCN(C(=S)Nc1c(C)cc(C)cc1C)C(C)c1cccs1 (stereo not shown),-24.8%
16,Cc1[nH]n(C(N)=S)c(=O)c1N=Nc1cccc([N+](=O)[O-])c1C,10.9%
17,O=C(CN1C(=O)CCS(=O)(=O)c2ccccc21)Nc1cccc(F)c1,-9.14%
18,COc1ccc(C(c2c(C)n(C)n(-c3ccccc3)c2=O)c2c(C)n(C)n(-c3ccccc3)c2=O)cc1,5.45%
19,Cc1ccc(NC(=O)COC(=O)c2c(-c3ccccc3)noc2C)c(C)c1,1.23%
20,CCOC(=O)C1=C(C)N(c2ccccc2)C(=O)/C1=C\c1cccs1,18.1%
21,COc1cccc(C(=O)NCC(=O)N/N=C/c2ccc(OC(=O)c3cccs3)c(OC)c2)c1,-21.3%
22,COc1cccc(NS(=O)(=O)c2nc3nc(C)cc(C)n3n2)c1,-6.02%
23,COc1ccccc1-c1cc(C(=O)Nc2c(C)n(C)n(-c3ccccc3)c2=O)no1,-34.9%
24,Cc1c(C)c2ccc(OCC(=O)N3CCC(C(=O)O)CC3)cc2oc1=O,-6.41%
25,O=[N+]([O-])c1cccc(/C=C/c2nc[nH]c2[N+](=O)[O-])c1,16.5%
26,COCCCN(C(=O)C1CCC1)c1c(N)n(Cc2ccccc2)c(=O)[nH]c1=O,7.19%
27,Cn1c(SCC(=O)NC2CCCC2)nc2c(c1=O)SCC2,13.4%
